# According to article PMC4336329 (PLoS ONE, 2015):
# About 2,200 (0.71%) of roughly 310,000 compounds showed an effect of 50% or more. Effects have a minus sign here. Some of the results follow.
# Target: human ether-à-go-go-related gene (hERG) potassium channel (human, UniProt Q12809)
# Assay: primary screen, population patch clamp on CHO cells stably expressing hERG
# Sequence of human ether-à-go-go-related gene (hERG) potassium channel (Q12809 whole entry, looked up): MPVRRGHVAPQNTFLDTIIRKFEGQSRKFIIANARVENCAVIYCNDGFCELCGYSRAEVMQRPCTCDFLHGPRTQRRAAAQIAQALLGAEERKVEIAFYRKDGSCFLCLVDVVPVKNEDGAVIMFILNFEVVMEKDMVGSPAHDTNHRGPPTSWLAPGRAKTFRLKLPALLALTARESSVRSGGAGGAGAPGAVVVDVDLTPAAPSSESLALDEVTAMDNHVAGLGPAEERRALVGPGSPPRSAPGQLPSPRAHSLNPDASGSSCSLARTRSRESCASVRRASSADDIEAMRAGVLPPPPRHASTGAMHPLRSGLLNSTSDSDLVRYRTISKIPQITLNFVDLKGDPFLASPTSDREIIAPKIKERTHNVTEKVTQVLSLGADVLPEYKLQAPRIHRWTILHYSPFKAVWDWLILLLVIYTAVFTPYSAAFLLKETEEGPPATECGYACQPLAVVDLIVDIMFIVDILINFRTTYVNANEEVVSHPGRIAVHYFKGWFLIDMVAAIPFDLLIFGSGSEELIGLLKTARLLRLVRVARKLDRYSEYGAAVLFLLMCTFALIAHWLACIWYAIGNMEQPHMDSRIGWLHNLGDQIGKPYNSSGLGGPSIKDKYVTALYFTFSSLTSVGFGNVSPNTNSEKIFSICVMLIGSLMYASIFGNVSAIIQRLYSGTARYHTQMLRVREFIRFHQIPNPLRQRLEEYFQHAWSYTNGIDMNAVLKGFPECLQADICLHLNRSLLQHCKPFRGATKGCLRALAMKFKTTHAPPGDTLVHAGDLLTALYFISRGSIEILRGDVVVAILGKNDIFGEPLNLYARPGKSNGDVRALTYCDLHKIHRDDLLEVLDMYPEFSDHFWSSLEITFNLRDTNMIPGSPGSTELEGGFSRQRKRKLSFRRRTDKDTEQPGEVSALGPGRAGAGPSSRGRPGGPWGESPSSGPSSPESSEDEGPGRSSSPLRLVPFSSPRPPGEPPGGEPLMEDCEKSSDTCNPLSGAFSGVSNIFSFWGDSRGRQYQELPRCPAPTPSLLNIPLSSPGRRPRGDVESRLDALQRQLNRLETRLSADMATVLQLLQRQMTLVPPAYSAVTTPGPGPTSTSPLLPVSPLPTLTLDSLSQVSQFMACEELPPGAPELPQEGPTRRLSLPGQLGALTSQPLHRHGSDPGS
row,Compound,"hERG current change (%, negative = inhibition) at 1uM"
1,COc1ccc(C(=O)Nn2c(SCC(=O)NCC3CCCO3)nc3ccccc3c2=O)cc1 (centres unmarked),13%
2,CCOc1ccc(NC(=S)NC(=O)/C=C/c2ccc(C)cc2)c([N+](=O)[O-])c1,6.91%
3,NC(=S)N/N=C/c1ccccc1,11.7%
4,CCCC[N+](CCCC)(CCCC)CCCC.Nc1ncnc2c1ncn2[C@@H]1O[C@H](COS(=O)(=O)[O-])[C@@H](O)[C@H]1O,10.2%
5,Cc1ccc(CC(=O)NCc2cccnc2)cc1,-1.49%
6,Cc1cc(NC(=O)CSc2ccc3nnc(CCNS(=O)(=O)c4ccccc4)n3n2)no1,4.27%
7,CCS(=O)(=O)NCc1csc(-c2ccccc2)n1,19.5%
8,CCn1c(=O)c(C(=O)NNS(=O)(=O)c2ccc(C)cc2)c(O)c2ccccc21,1.76%
9,Cc1nn(-c2ccccc2)c2c1C1(C(=O)Nc3ccccc31)N1C(=N2)Sc2ccccc21 (centres unmarked),1.34%
10,O=C(CCc1ccccc1)Nc1ccnn1C1CCN(C/C=C/c2ccccc2)CC1,-24.2%
11,Cc1ccc(C(=O)Nc2cnc3ccccc3c2)cc1,6.66%
12,Cc1nnc(C)n1/N=C/c1cccnc1,13.2%
13,Cc1ccc(-n2c(SCC(=O)NC3CCS(=O)(=O)C3)nc3ccccc3c2=O)cc1 (centres unmarked),18.8%
14,CC(C)(C)OC(=O)NCCCC[C@@H](C(=O)NCCCCCCCCCCC(=O)N1CCN(C(=O)OC(C)(C)C)CC1)n1cc(CCO)nn1,10.5%
15,O=C(Nc1cccc(S(=O)(=O)N2CCCCC2)c1)C1CC(=O)N(Cc2ccco2)C1 (centres unmarked),8.96%
16,CN1c2ccccc2C(C)(C)C12CC(c1ccc(Cl)c(S(=O)(=O)N3CCCC3)c1)=NO2 (centres unmarked),12%
17,COc1cc(C2C(C#N)=C(N)Oc3c2ccc2ccccc32)ccc1OCC(=O)Nc1ccccc1C (centres unmarked),20.3%
18,CC1=C(C(=O)Nc2ccc(C)cc2C)C(c2ccc(C)o2)NC(=O)N1 (centres unmarked),1.85%
19,CCOc1ccc(S(=O)(=O)NNC(=O)c2cc3ccccc3o2)cc1,-6.76%
20,NC(=S)N/N=C/c1c[nH]c2ccc(OCc3ccccc3)cc12,10.2%
21,O=C(NNC(=S)Nc1ccc(Cl)cc1Cl)C1CC1,4.5%
22,COCCCn1c(=S)[nH]c2ncccc2c1=O,-8.38%
23,COc1ccc(Br)cc1CN1CCCC(C(=O)N2CCCCC2)C1.O=C(O)C(=O)O (centres unmarked),-16.9%
